Results: the supplement of paper PMC12217912
Some of the results follow. Sequences were assembled here from the parent chain. Values near 0.05 are background.

B1: TEV protease; numbered along this chain (parent)
chain: MGESLFKGPRDYNPISSSICHLTNESDGHTTSLYGIGFGPFIITNKHLFRRNNGTLVVQSLHGVFKVKDTTTLQQHLVDGRDMIIIRMPKDFPPFPQKLKFREPQREERICLVTTNFQTKSMSSMVSDTSCTFPSGDGIFWKHWIQTKDGQCGSPLVSTRDGFIVGIHSASNFTNTNNYFTSVPKNFMELLTNQEAQQWVSGWRLNADSVLWGGHKVFMVKPEEPFQPVKEATQL

Variants of: B1
Experiment: raw area under fraction-flipped curve 0-4 h after induction (AUC4h, not background-subtracted), DNA-recorder readout of cleavage of the substrate (dimensionless); higher = more cleavage of the substrate by the protease variant
Conditions: temperature: 34 °C; time window: 0-4 h after rhamnose induction
Method: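 In vivo DNA recorder in E. coli TOP10(DE3) ΔrhaA at 34 °C. Each TEVp single-site mutant (parent TEVp 0) is paired with a single-site variant of the 7-mer TEVs (canonical ENLYFQ|S). The substrate sits between flexible linkers in a Bxb1-sfGFP-TEVs-SsrA fusion, so cleavage stabilises Bxb1 and speeds flipping of a recombination array, read by NGS. The value is the raw area under the fraction-flipped curve over 0-4 h after rhamnose induction (AUC4h), with ≥20 reads per time point. It is not background-subtracted; inactive controls average about 0.047.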
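Also: Bxb1 expression induced with 0.2% (w/v) L-rhamnose at OD600 near 0.5, cultures sampled hourly, flipped fraction per protease–substrate barcode pair counted by paired-end Illumina sequencing.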

Row | Variant | area with substrate ENLYAQS | area with substrate ENLYCQS | area with substrate ENLYDQS | area with substrate ENLYEQS | area with substrate ENLYHQS | area with substrate ENLYIQS | area with substrate ENLYMQS | area with substrate ENLYNQS | area with substrate ENLYPQS | area with substrate ENLYWQS | area with substrate ENLYGQS | area with substrate ENLYKQS | area with substrate ENLYRQS | area with substrate ENLYSQS | area with substrate ENLYVQS | area with substrate ENLYLQS | area with substrate ENLYTQS | area with substrate ENLYYQS | area with substrate ENLYQQS
1 | K120D | 0.0779 | 0.0876 | 0.0748 | 0.0747 | 0.0664 | 0.102 | 0.0863 | 0.0701 | 0.0838 | 0.0535 |  |  |  |  |  |  |  |  | 
2 | K120N | 0.0731 |  | 0.058 |  |  | 0.107 | 0.0606 |  | 0.0788 |  | 0.0874 | 0.0628 | 0.069 | 0.0667 | 0.138 |  |  |  | 
3 | E108Q | 0.0599 | 0.0774 | 0.0563 | 0.0608 | 0.0601 | 0.0862 |  |  | 0.061 | 0.0409 | 0.0208 | 0.0608 |  |  | 0.0771 | 0.0452 | 0.058 | 0.0854 | 
4 | G166C | 0.0656 | 0.0535 | 0.0428 | 0.068 | 0.0771 |  | 0.0594 | 0.0513 | 0.0505 |  |  |  | 0.0617 | 0.0469 | 0.0649 |  | 0.0422 |  | 0.0036
5 | R106G | 0.0865 |  | 0.0853 |  |  | 0.128 | 0.111 | 0.0687 |  | 0.0761 |  |  |  | 0.0728 | 0.0874 |  |  |  | 
6 | R106Q | 0.0751 |  | 0.0583 | 0.0738 | 0.0731 | 0.115 | 0.0722 | 0.0675 | 0.0747 | 0.0757 | 0.0689 | 0.0417 | 0.0604 | 0.0803 | 0.106 | 0.0797 |  | 0.0621 | 0.0596
7 | R106P | 0.0394 |  |  | 0.0546 | 0.0624 |  |  | 0.0689 | 0.072 | 0.071 | 0.0922 | 0.0612 | 0.0642 | 0.0643 |  | 0.094 |  |  | 0.0581
8 | G136F | 0.0695 |  | 0.0588 | 0.0668 | 0.0695 | 0.114 | 0.0946 | 0.0724 | 0.026 | 0.0887 |  | 0.0544 |  | 0.0683 | 0.128 | 0.0895 | 0.0705 | 0.0781 | 
9 | G136K | 0.0481 |  | 0.054 | 0.0496 | 0.0756 | 0.118 | 0.0714 | 0.0671 | 0.073 |  | 0.0645 |  |  | 0.0659 |  |  |  |  | 
10 | M125D | 0.0625 |  | 0.0647 | 0.0723 | 0.0822 | 0.138 | 0.066 | 0.0782 | 0.0672 | 0.0858 | 0.0573 | 0.0512 | 0.0678 | 0.0468 | 0.102 |  |  | 0.0626 | 0.0637
11 | W141H | 0.0642 |  | 0.0599 | 0.0579 | 0.0641 | 0.0932 | 0.0645 |  | 0.0541 | 0.0486 | 0.0632 | 0.0634 | 0.0499 | 0.0598 | 0.0941 | 0.0611 | 0.0513 |  | 
12 | P104N | 0.055 | 0.0656 | 0.0546 | 0.0521 | 0.0456 | 0.0415 | 0.0354 | 0.0465 | 0.046 | 0.0524 |  | 0.0103 | 0.0532 | 0.0747 | 0.0491 |  |  | 0.0275 | 0.0414
13 | P104V | 0.0855 |  | 0.0579 |  | 0.0429 | 0.0932 | 0.0595 | 0.0679 | 0.0629 |  | 0.0617 | 0.0692 | 0.057 | 0.0688 | 0.0763 |  | 0.068 | 0.0442 | 
